The other results are listed elsewhere or left out.

This experiment has as its system S. aureus RN4220. Briefly: growth inhibition call (relative growth <= 0.2). The note with it: 50 µM.
On to `COc1ccc(CN(C)C[C@@H]2OCCCC[C@@H](C)Oc3ccc(NC(=O)c4ccncc4)cc3C(=O)N([C@@H](C)CO)C[C@@H]2C)cc1`, for which the growth inhibition call is “inactive”.
Consider `NC1CCN(C(=O)c2cc3ccccc3[nH]2)CC1`, for which the growth inhibition call was “inactive”.
As for `COCC(=O)Nc1ccc2c(c1)OC[C@@H](C)N(Cc1ccccc1F)C[C@@H](C)[C@@H](OC)CN(C)C2=O`, the growth inhibition call is “inactive”.
Under `CN(C)CCCNC(=O)C[C@@H]1C=C[C@H](NC(=O)Cc2cccnc2)[C@H](CO)O1` stands “inactive”; under `O=C(O)C(O)C(O)C(=O)O.OCc1cccnc1` (stereo not given), “inactive”.
As for `Cc1ccc(S(=O)(=O)Nc2ccc3c(c2)CC(=O)N([C@H](C)CO)C[C@H](C)[C@H](CN(C)Cc2ccc(C(F)(F)F)cc2)O3)cc1`, the entry is “inactive”; as for `COc1ccc(S(=O)(=O)N(C)C[C@@H]2Oc3ccc(NC(=O)CCC(F)(F)F)cc3CC(=O)N([C@H](C)CO)C[C@@H]2C)cc1`, “inactive”.
Under `O=C(C[C@@H]1C=C[C@H](NC(=O)c2cnccn2)[C@H](CO)O1)NCc1ccccc1F` stands “inactive”; under `CS(=O)(=O)N1CCN(c2ccccc2)CC1`, “inactive”.
As to `COCC#Cc1ccc2c(c1)O[C@H](CN(C)S(=O)(=O)c1ccc(C)cc1)[C@@H](C)CN([C@H](C)CO)S2(=O)=O`, the growth inhibition call was “inactive”.

Source of the values: the antibiotic and cytotoxicity screens of Wong et al. (2023).
